# This is one part of the list.
# Tested on: PF3D7_0420300 AP2 domain 1 (GST-tagged)
# Test: gcPBM binding intensity (ln(normalized median fluorescence intensity)); higher = stronger DNA binding
# In short: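 In this array assay, P. falciparum DNA-binding domains with a GST tag, expressed in E. coli, were applied for 1 h to primer-extended double-stranded 36-bp intergenic genomic probes and negative controls on an Agilent 4 × 180k array. Bound protein was visualised with Alexa488 anti-GST antibody at 488 nm. Binding intensity is the highest Masliner-normalised natural-log median intensity across replicate spots of either probe orientation.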
row,Sequence,gcPBM binding intensity (ln)
1,AGACTATCATTTTTTTAACACACAAAAAAAATAAAA [CACACA_site9173],9.27
2,ATCGCATATACATTATATTTTATAATAATTATTTTT [GTGCAC_negctrl_site48],9.51
3,ATAATGTATATTATTGCACACATATATAAAATTATG [CACACA_site8280],9.36
4,TAAATAAATACATACACACACATACCTATATTTATA [CACACA_site7466],9.93
5,TTTTATAAAAACAAAAACAAAGGCACTTTCTAAAGA [XGTACX_negctrl_site130],9.19
6,AATATAAATATAAATATAAATATATATATATATATA [TGCATGCA_negctrl_site603],8.91
7,TGTATACACATATGTACACACATATAGATGTATATG [CACACA_site7447],9.52
8,AATTTTATTTAAAGTGCATGTAAAATTAAAACTTTT [TGCATGCA_site989],8.88
9,AAAGACAAAAGGAATTGTACATAATATATAAAATAT [XGTACX_site2923],9.34
10,CACAAAAGTAAGCACGCACACACAACATGAAATAAA [CACACA_site7938],9.87
11,CATTTTTTGTAAAATCGTACATATACATAAAGTGGT [XGTACX_site3423],9.08
12,GGGAAACGATTTAATACACACACGTATTATATATAT [CACACA_site1160],9.64
13,ATATAAAATATGAGTAGTACATATTTTCTCATCTTA [XGTACX_site8595],9.07
14,TATGAATTTATCTACAACATTTGAAATAAATTAAAA [CACACA_negctrl_site79],8.74
15,AACTAATAGTATATTACATGCAAAAGTAAAAGTAAA [TGCATGCA_site411],9.5
16,CTCACAATACTTACATGTACATATTATATATATAAA [XGTACX_site1880],9.4
17,GTTGAAATAAAATTAGTGCATATATAAATATATATA,9.05
18,ACTGAAAAAAGAAATACACACATTCTGGATCAGATA [CACACA_site7760],9.56
19,TCATTCTTGTGTTTATGTACACATATTTATATTGTA [XGTACX_site710],9.64
20,TTATCATTTTTGGAATGTACTTACATTAAATATTTA [XGTACX_site4034],9.09
21,TATATGCAAAATGTCACACATGTGATAAATACATAT [CACACA_site4302],9.48
22,GGAACCATCCAAAAAAAAAAAAAAAATAATAATAAT [CACACA_negctrl_site383],8.86
23,ACATGTACAGAAATTTATATATATATATATATATAT [CACACA_negctrl_site1584],9.18

row,Sequence,gcPBM binding intensity (ln)
1,ATTATTATGTATTGCCGTACACATATTATCACAGAA [XGTACX_site3740],9.34
2,TCTTCATATATAATTGTACACACAAAAACGACATTG [CACACA_site8645],9.62
3,TATTATAATTAATATACACACGCTTATATATATATA [CACACA_site75],9.36
4,TATAAATAAACATTTACACACTCTTATAATAAATAT [CACACA_site1679],9.25
5,ATGCAAACTAAAAGACGTACAGAAAAGTATCATACT [XGTACX_site8766],9.26
6,TGATTATTTTATATTTGTACACATATCATATAAAAA [XGTACX_site5868],9
7,ACATAATATTGAAGAAGTACAAATTTTATTTATTAT [XGTACX_site4113],9.17
8,ACGTTTTTGAGTAGTACACACACAATAAGGATGGAT [CACACA_site9044],9.77
9,CCTCATATTATAGACACACACAAAAAAAATAAAAAA [CACACA_site180],9.74
10,AATATAATATATATTAGTACATATATATATATATAT [XGTACX_site870],9.06
11,TCATTATTATATAATTGTACATAATAATTATATCCA [XGTACX_site1801],9.06
12,ATGTATGTGTATATATGTACATAATATATATCTTTT [XGTACX_site8666],9.38
13,CCCAGGAATATAAAATGTACATAAAAAATACAAATT [XGTACX_site1708],9.37
14,AGTACATTATAGAATACACACCTATACATTTATATA [CACACA_site6391],9.46
15,TAAGCACAAGCACAAGCACACATTTATATATATATA [CACACA_site883],9.24
16,TTTTTTTTTTTTGGATGTACTTAATGAAAATGTTAC [XGTACX_site8980],8.93
17,TATTTGTGAAGAAATTGTACTCATATCTACATTTAT [XGTACX_site2245],9.12
18,TCTTTGTATATATGTTCATTTGTAATATATATTCAT [TGCATGCA_negctrl_site467],9.42
19,ATAATAATATAAAAATGTACATATATTTATAATTGT [XGTACX_site3429],9.23
20,ATTTATTGACTATTTACACACATATTTATTAAAATA [CACACA_site4980],9.5
21,TACGCTCCCAGACACACACACACACCGATATAATAT [CACACA_site8098],10.3
22,TATTATATTATGTGATGTACATATTTATATAGGCCC [XGTACX_site4746],9.06
23,TATTACATACCTTATTGTACAAATTATATATTAAAG [XGTACX_site7334],9.08

row,Sequence,gcPBM binding intensity (ln)
1,ATTCAGTTATATAATACACACATATATTGACATTAT [CACACA_site2723],9.5
2,ACAGTATCTGGTAGCTGTACGAGTCGTAGAGAGTAG [XGTACX_site2041],9.3
3,AGGTGCAAAAATAAAACATGCAAAAATAAAAATGAA [TGCATGCA_site502],9.35
4,AATAATTAAATAAGAGTGCATGAAACAGGAAATTTC,9.73
5,TAATAAAAAATATATACACACAAATAAATAAATAAA [CACACA_site4037],9.83
6,AATAGTCGTGTGCATACACACCTTAACTATAATATA [CACACA_site6636],9.38
7,AAGAAATAAAGCAAAACATGCACTCGAAAATGTTTT [TGCATGCA_site1014],9.41
8,TATTGTTAAAATGAATAATTAAAACAGTAATGAATA [XGTACX_negctrl_site170],9.18
9,TTAGCAACTATTACTACACACATTTTTATATAACTT [CACACA_site6762],9.67
10,ATGTCTAATTTTGATGCACACTTTTGTGCAATTAAA [CACACA_site5589],9.14
11,TATATATGTTTTTATGTACACACTTTTAACCTAAGA [CACACA_site1149],9.38
12,CGCATGCAATGTTAATGTACATATATATATATATGT [XGTACX_site3316],9.14
13,TTTTTTTTTTTTTGATGTACAATTAATATTATAAAA [XGTACX_site6969],8.94
14,AGTAATAAATAATTTACACACATATTATATCATCAC [CACACA_site1890],9.7
15,CATTTTAAAGAAAATACACACAAAAATAGATATATA [CACACA_site6773],9.68
16,ATTTCTTTTTTATTGAGTACATATGACCATGTTCAA [XGTACX_site5365],9.3
17,GAAAAAAATGAAATTAGTACTTATCTTAAATTTTTA [XGTACX_site1018],8.8
18,AAAAATATATAATAAAGTACACATAAATGAATAAAT [XGTACX_site329],9.8
19,TAGTATAATATGAACACACACACACGCACAAAAAAA [CACACA_site7035],10.1
20,TGTAAGCACATACAAACACACAACATTATTTTTATC [CACACA_site2186],9.62
21,ATCGTTATATAAAAATGTACTTATAAATTGTATACA [XGTACX_site6664],9.2
22,CAACATTTGATAAACACACAGAAGTATAAATATATA [CACACA_site2365],9.53
23,AAAGGAAAAATCCAAGTGCATTATTATTTTCACAAA [GTGCAC_site9995],8.95

row,Sequence,gcPBM binding intensity (ln)
1,TGTTCTTTGTTCAGCGCATGTAAAATAAAATAAAAT [TGCATGCA_site629],9.04
2,TTTTTTTTTGAATACAGTACACAAGTGTTAAGTTTA [XGTACX_site7069],8.89
3,GATTGATTATATGTGTGTACTTATATGTTAAAAAAA [XGTACX_site4784],9.46
4,TATGAATATCTATACACACACATATATATACCCACT [CACACA_site4963],9.94
5,TATTTGAAAACATAGGTGCACATTATTTTATAATCT [GTGCAC_site9947],9.26
6,GAAAGAATAAAATTTACACACATATAAATATACATA [CACACA_site7125],9.45
7,AAAGGTGTCATATATGCACACAAAAGTAACACGCAC [CACACA_site8051],9.66
8,TTTATTCTTGAGTATTGTACATATGTGTTTGTATAT [XGTACX_site5706],9.38
9,AGGAGGATGCATATGGCACACATTATGAAACTGTCG [CACACA_site299],9.26
10,TTTTCCCTCTTATTCACACAAAAAAAATAAAATAAA [CACACA_site4656],8.9
11,ACACTAACATCATATCGTACATTTGTTAATTTATAA [XGTACX_site8654],9.45
12,TATTTATTTTTTTTTGTGCACTTAATATAATCTTAC,9.24
13,TTTTTATTTATATGATACTTATATATATATATATAT [CACACA_negctrl_site462],9.26
14,TCTTTTAAAAAAATTTGTACATATTTTTTGTATTAT [XGTACX_site67],9.16
15,TTCTTAATATTGCATGCACACTATATAATAATTGAA [CACACA_site4720],9.29
16,ATACATACAAAAATTTGTACATATTTCCAATAATGT [XGTACX_site2658],9.15
17,GAAAAAACGAAAAAAATACACACCTGAAAAGATATG [CACACA_site887],9.61
18,GCCATAATATGACATACACACACAAAAAAAAAAAAA [CACACA_site8353],9.7
19,AAATTTCCATTTGGGTGTACATGTGAAACTACAAAG [XGTACX_site208],9.13
20,TATTTATCTATTTTGTTATATAATAAAATAAAATAA [CACACA_negctrl_site281],8.75

# — the supplement of paper PMC11417369
